# Reference: the supplement of paper PMC8728848
# This is one part of the list.
# B1: rCNL (Clitocybe nebularis), B2ZRS9 (protein)
# chain: SITPGTYNITNVAYTNRLIDLTGSNPAENTLIIGHHLNKTPSGYGNQQWTLVQLPHTTIYTMQAVNPQSYVRVRDDNLVDGAALVGSQQPTPVSIESAGNSGQFRIKIPNLGLALTLPSDANSTPIVLGEVDETSTNQLWAFESVSAV
# Assays:
# Experiment in all cases: glycan array binding signal (z-score within array); higher = stronger binding
# Conditions in all cases: glycan notation: IUPAC condensed, linker removed
# [1] = molecular target: Neu5Ac(a2-3)Gal(b1-4)GlcNAc(b1-2)Man(a1-3)[Neu5Ac(a2-3)Gal(b1-4)GlcNAc(b1-2)Man(a1-6)]Man(b1-4)GlcNAc(b1-4)[Fuc(a1-6)]GlcNAc
# In short: (§1)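 From the Consortium for Functional Glycomics database, 3228 arrays were curated, keeping only those whose protein sequence was available. Binding is given as a within-array Z-score averaged across arrays sharing a protein sequence and across linkers. Negative Z-scores can be read as non-binding.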
# [2] = molecular target: Neu5Ac(a2-3)Gal(b1-4)GlcNAc(b1-2)Man(a1-3)[Neu5Ac(a2-6)Gal(b1-4)GlcNAc(b1-2)Man(a1-6)]Man(b1-4)GlcNAc(b1-4)GlcNAc
# In short: as §1
# [3] = molecular target: Neu5Ac(a2-3)Gal(b1-4)GlcNAc(b1-2)[Neu5Ac(a2-3)Gal(b1-4)GlcNAc(b1-4)]Man(a1-3)[GlcNAc(b1-4)][Neu5Ac(a2-3)Gal(b1-4)GlcNAc(b1-2)[Neu5Ac(a2-3)Gal(b1-4)GlcNAc(b1-6)]Man(a1-6)]Man(b1-4)GlcNAc(b1-4)GlcNAc
# In short: as §1
# [4] = molecular target: Neu5Ac(a2-3)Gal(b1-4)GlcNAc(b1-2)[Neu5Ac(a2-3)Gal(b1-4)GlcNAc(b1-4)]Man(a1-3)[GlcNAc(b1-4)][Neu5Ac(a2-3)Gal(b1-4)GlcNAc(b1-4)Man(a1-6)]Man(b1-4)GlcNAc(b1-4)GlcNAc
# In short: as §1
# [5] = molecular target: Neu5Ac(a2-3)Gal(b1-4)GlcNAc(b1-2)[Neu5Ac(a2-3)Gal(b1-4)GlcNAc(b1-6)]Man(a1-6)[Neu5Ac(a2-3)Gal(b1-4)GlcNAc(b1-2)Man(a1-3)]Man(b1-4)GlcNAc(b1-4)GlcNAc
# In short: as §1
# [6] = molecular target: Neu5Ac(a2-3)Gal(b1-4)GlcNAc(b1-2)[Neu5Ac(a2-3)Gal(b1-4)GlcNAc(b1-6)]Man(a1-6)[Neu5Ac(a2-3)Gal(b1-4)GlcNAc(b1-2)Man(a1-3)][GlcNAc(b1-4)]Man(b1-4)GlcNAc(b1-4)GlcNAc
# In short: as §1
# [7] = molecular target: Neu5Ac(a2-3)Gal(b1-4)GlcNAc(b1-3)Gal
# In short: as §1
# [8] = molecular target: Neu5Ac(a2-3)Gal(b1-4)GlcNAc(b1-3)Gal(b1-3)GlcNAc
# In short: as §1
# [9] = molecular target: Neu5Ac(a2-3)Gal(b1-4)GlcNAc(b1-3)Gal(b1-4)GlcNAc
# In short: as §1
# [10] = molecular target: Neu5Ac(a2-3)Gal(b1-4)GlcNAc(b1-3)Gal(b1-4)GlcNAc(b1-2)Man(a1-3)[Neu5Ac(a2-3)Gal(b1-4)GlcNAc(b1-3)Gal(b1-4)GlcNAc(b1-2)Man(a1-6)]Man(b1-4)GlcNAc(b1-4)GlcNAc
# In short: as §1
# [11] = molecular target: Neu5Ac(a2-3)Gal(b1-4)GlcNAc(b1-3)Gal(b1-4)GlcNAc(b1-3)Gal(b1-4)GlcNAc
# In short: as §1
# [12] = molecular target: Neu5Ac(a2-3)Gal(b1-4)GlcNAc(b1-3)Gal(b1-4)GlcNAc(b1-3)Gal(b1-4)GlcNAc(b1-2)Man(a1-3)[Neu5Ac(a2-3)Gal(b1-4)GlcNAc(b1-3)Gal(b1-4)GlcNAc(b1-3)Gal(b1-4)GlcNAc(b1-2)Man(a1-6)]GalNAc
# In short: as §1
# [13] = molecular target: Neu5Ac(a2-3)Gal(b1-4)GlcNAc(b1-3)Gal(b1-4)GlcNAc(b1-3)GalNAc
# In short: as §1
# [14] = molecular target: Neu5Ac(a2-3)Gal(b1-4)GlcNAc(b1-3)Gal(b1-4)GlcNAc(b1-3)[Neu5Ac(a2-3)Gal(b1-4)GlcNAc(b1-3)Gal(b1-4)GlcNAc(b1-6)]GalNAc
# In short: as §1
# [15] = molecular target: Neu5Ac(a2-3)Gal(b1-4)GlcNAc(b1-3)Gal(b1-4)GlcNAc(b1-6)[Gal(b1-3)]GalNAc
# In short: as §1
# [16] = molecular target: Neu5Ac(a2-3)Gal(b1-4)GlcNAc(b1-3)Gal(b1-4)[Fuc(a1-3)]GlcNAc
# In short: as §1
# [17] = molecular target: Neu5Ac(a2-3)Gal(b1-4)GlcNAc(b1-3)GalNAc
# In short: as §1
# [18] = molecular target: Neu5Ac(a2-3)Gal(b1-4)GlcNAc(b1-3)[Neu5Ac(a2-3)Gal(b1-4)GlcNAc(b1-6)]GalNAc
# In short: as §1
# [19] = molecular target: Neu5Ac(a2-3)Gal(b1-4)GlcNAc(b1-6)GalNAc
# In short: as §1
# [20] = molecular target: Neu5Ac(a2-3)Gal(b1-4)GlcNAc(b1-6)[Gal(b1-3)]GalNAc
# In short: as §1
# [21] = molecular target: Neu5Ac(a2-3)Gal(b1-4)GlcNAc(b1-6)[Neu5Ac(a2-3)Gal(b1-3)]GalNAc
# In short: as §1
# [22] = molecular target: Neu5Ac(a2-3)Gal(b1-4)GlcNAc6S
# In short: as §1
# [23] = molecular target: Neu5Ac(a2-3)Gal(b1-4)[Fuc(a1-3)]GlcNAc
# In short: as §1
# [24] = molecular target: Neu5Ac(a2-3)Gal(b1-4)[Fuc(a1-3)]GlcNAc(b1-2)Man
# In short: as §1
# [25] = molecular target: Neu5Ac(a2-3)Gal(b1-4)[Fuc(a1-3)]GlcNAc(b1-3)Gal
# In short: as §1
# [26] = molecular target: Neu5Ac(a2-3)Gal(b1-4)[Fuc(a1-3)]GlcNAc(b1-3)Gal(b1-4)GlcNAc
# In short: as §1
# [27] = molecular target: Neu5Ac(a2-3)Gal(b1-4)[Fuc(a1-3)]GlcNAc(b1-3)Gal(b1-4)[Fuc(a1-3)]GlcNAc(b1-3)Gal(b1-4)[Fuc(a1-3)]GlcNAc
# In short: as §1
binder,measurement,setting,value
B1,glycan array binding signal (z-score),[1],-0.214
same,glycan array binding signal (z-score),[2],-0.271
same,glycan array binding signal (z-score),[3],-0.225
same,glycan array binding signal (z-score),[4],-0.218
same,glycan array binding signal (z-score),[5],-0.206
same,glycan array binding signal (z-score),[6],-0.228
same,glycan array binding signal (z-score),[7],-0.229
same,glycan array binding signal (z-score),[8],-0.016
same,glycan array binding signal (z-score),[9],-0.02
same,glycan array binding signal (z-score),[10],0.055
same,glycan array binding signal (z-score),[11],0.167
same,glycan array binding signal (z-score),[12],0.003
same,glycan array binding signal (z-score),[13],-0.22
same,glycan array binding signal (z-score),[14],-0.194
same,glycan array binding signal (z-score),[15],-0.168
same,glycan array binding signal (z-score),[16],-0.304
same,glycan array binding signal (z-score),[17],-0.306
same,glycan array binding signal (z-score),[18],-0.213
same,glycan array binding signal (z-score),[19],-0.218
same,glycan array binding signal (z-score),[20],-0.314
same,glycan array binding signal (z-score),[21],-0.33
same,glycan array binding signal (z-score),[22],-0.298
same,glycan array binding signal (z-score),[23],0.296
same,glycan array binding signal (z-score),[24],-0.218
same,glycan array binding signal (z-score),[25],0.369
same,glycan array binding signal (z-score),[26],0.452
same,glycan array binding signal (z-score),[27],-0.007
